According to the supplement of paper PMC8728848:
This is one part of the list.

What was measured:
Experiment in all cases: glycan array binding signal (z-score within array); higher = stronger binding
Settings in all cases: glycan notation: IUPAC condensed, linker removed
[1] = target: GalNAc(b1-3)Gal(a1-4)Gal(b1-4)GlcNAc
In short: (§1)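 The binding signal is a Z-score computed within each array and averaged over linkers. Arrays of the same protein sequence at different concentrations or buffers were also averaged together. Data originate from 3228 arrays in the Consortium for Functional Glycomics database, kept only where the protein sequence was available.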

[2] = target: GalNAc(b1-3)Gal(a1-4)Gal(b1-4)GlcNAc(b1-3)Gal(b1-4)Glc
In short: as §1

[3] = target: GalNAc(b1-3)Gal(a1-6)Gal(b1-4)Glc
In short: as §1

GalNAc(b1-3)GalNAc = target: GalNAc(b1-3)GalNAc
In short: as §1

GalNAc(b1-4)GlcNAc = target: GalNAc(b1-4)GlcNAc
In short: as §1

[4] = target: GalNAc(b1-4)GlcNAc(b1-2)Man(a1-3)[GalNAc(b1-4)GlcNAc(b1-2)Man(a1-6)]Man(b1-4)GlcNAc(b1-4)GlcNAc
In short: as §1

GalNAc(b1-6)GalNAc = target: GalNAc(b1-6)GalNAc
In short: as §1

Glc(a1-4)Glc = target: Glc(a1-4)Glc
In short: as §1

Glc(a1-6)Glc(a1-6)Glc = target: Glc(a1-6)Glc(a1-6)Glc
In short: as §1

Glc(b1-4)Glc = target: Glc(b1-4)Glc
In short: as §1

Glc(b1-6)Glc = target: Glc(b1-6)Glc
In short: as §1

GlcA(b1-3)Gal = target: GlcA(b1-3)Gal
In short: as §1

GlcA(b1-3)GlcNAc = target: GlcA(b1-3)GlcNAc
In short: as §1

GlcA(b1-6)Gal = target: GlcA(b1-6)Gal
In short: as §1

[5] = target: GlcNAc(a1-3)Gal(b1-4)GlcNAc
In short: as §1

[6] = target: GlcNAc(a1-4)Gal(b1-3)GlcNAc
In short: as §1

[7] = target: GlcNAc(a1-4)Gal(b1-4)GalNAc
In short: as §1

[8] = target: GlcNAc(a1-4)Gal(b1-4)GlcNAc
In short: as §1

[9] = target: GlcNAc(a1-4)Gal(b1-4)GlcNAc(b1-3)Gal(b1-4)Glc
In short: as §1

[10] = target: GlcNAc(a1-4)Gal(b1-4)GlcNAc(b1-3)Gal(b1-4)GlcNAc
In short: as §1

[11] = target: GlcNAc(a1-4)Gal(b1-4)GlcNAc(b1-3)Gal(b1-4)GlcNAc(b1-3)Gal(b1-4)GlcNAc
In short: as §1

[12] = target: GlcNAc(a1-4)Gal(b1-4)GlcNAc(b1-3)Gal(b1-4)[Fuc(a1-3)]GlcNAc(b1-3)Gal(b1-4)[Fuc(a1-3)]GlcNAc
In short: as §1

[13] = target: GlcNAc(a1-6)Gal(b1-4)GlcNAc
In short: as §1

[14] = target: GlcNAc(b1-2)Gal(b1-3)GalNAc
In short: as §1

[15] = target: GlcNAc(b1-2)Man(a1-3)[GlcNAc(b1-2)Man(a1-6)]Man(b1-4)GlcNAc(b1-4)GlcNAc
In short: as §1

[16] = target: GlcNAc(b1-2)Man(a1-3)[GlcNAc(b1-2)Man(a1-6)]Man(b1-4)GlcNAc(b1-4)[Fuc(a1-6)]GlcNAc
In short: as §1

[17] = target: GlcNAc(b1-2)Man(a1-3)[GlcNAc(b1-4)][GlcNAc(b1-2)Man(a1-6)]Man(b1-4)GlcNAc(b1-4)GlcNAc
In short: as §1

[18] = target: GlcNAc(b1-2)[GlcNAc(b1-4)]Man(a1-3)[GlcNAc(b1-2)Man(a1-6)]Man(b1-4)GlcNAc(b1-4)GlcNAc
In short: as §1

[19] = target: GlcNAc(b1-2)[GlcNAc(b1-4)]Man(a1-3)[GlcNAc(b1-4)][GlcNAc(b1-2)Man(a1-6)]Man(b1-4)GlcNAc(b1-4)GlcNAc
In short: as §1

[20] = target: GlcNAc(b1-2)[GlcNAc(b1-4)]Man(a1-3)[GlcNAc(b1-4)][GlcNAc(b1-2)[GlcNAc(b1-6)]Man(a1-6)]Man(b1-4)GlcNAc(b1-4)GlcNAc
In short: as §1

[21] = target: GlcNAc(b1-2)[GlcNAc(b1-6)]Man(a1-6)[GlcNAc(b1-2)Man(a1-3)]Man(b1-4)GlcNAc(b1-4)GlcNAc
In short: as §1

[22] = target: GlcNAc(b1-2)[GlcNAc(b1-6)]Man(a1-6)[GlcNAc(b1-2)Man(a1-3)][GlcNAc(b1-4)]Man(b1-4)GlcNAc(b1-4)GlcNAc
In short: as §1

GlcNAc(b1-3)Gal = target: GlcNAc(b1-3)Gal
In short: as §1

[23] = target: GlcNAc(b1-3)Gal(b1-3)GalNAc
In short: as §1

GlcNAc(b1-3)Gal(b1-4)Glc = target: GlcNAc(b1-3)Gal(b1-4)Glc
In short: as §1

[24] = target: GlcNAc(b1-3)Gal(b1-4)GlcNAc
In short: as §1

[25] = target: GlcNAc(b1-3)Gal(b1-4)GlcNAc(b1-3)Gal(b1-4)GlcNAc
In short: as §1

GlcNAc(b1-3)GalNAc = target: GlcNAc(b1-3)GalNAc
In short: as §1

GlcNAc(b1-3)Man = target: GlcNAc(b1-3)Man
In short: as §1

[26] = target: GlcNAc(b1-3)[GlcNAc(b1-4)][GlcNAc(b1-6)]GlcNAc
In short: as §1

[27] = target: GlcNAc(b1-3)[GlcNAc(b1-6)]Gal(b1-4)GlcNAc
In short: as §1

[28] = target: GlcNAc(b1-3)[GlcNAc(b1-6)]GalNAc
In short: as §1

[29] = target: GlcNAc(b1-4)Gal(b1-4)GlcNAc
In short: as §1

GlcNAc(b1-4)GlcNAc = target: GlcNAc(b1-4)GlcNAc
In short: as §1

[30] = target: GlcNAc(b1-4)GlcNAc(b1-4)GlcNAc
In short: as §1

B1: LSectin (Mus musculus), Q8BNX1 (protein)
chain: MNTGEYNKLGSAIEEVSRGQLGRWECYKQRLFFLVLALLVATVLWALILSTLLSSASSKLRVLLSHQDLLRTNASEQKMTLSSLKDDIGACRNCCSVTKAQLQTTLAEFKDIQAKLMEQESILKELQERVTQDLAKASRDRENIRSELFQALEAVKRQNSSCEQCPPSWLPFQGSCYYFSETQATWDTAQSYCGGQGAHLVIVRGLNEQGFLSQHTRGRGYWLGLRAVRHLNKIQGYRWVDGASLNFSHWNSGEPNDSRGHEDCIMMLHSGLWNDAPCTNERDGWICEKRSSCY
- glycan array binding signal (z-score) [1]: -0.139
- glycan array binding signal (z-score) [2]: -0.189
- glycan array binding signal (z-score) [3]: -0.185
- glycan array binding signal (z-score) (GalNAc(b1-3)GalNAc): -0.146
- glycan array binding signal (z-score) (GalNAc(b1-4)GlcNAc): -0.18
- glycan array binding signal (z-score) [4]: -0.18
- glycan array binding signal (z-score) (GalNAc(b1-6)GalNAc): -0.184
- glycan array binding signal (z-score) (Glc(a1-4)Glc): -0.16
- glycan array binding signal (z-score) (Glc(a1-6)Glc(a1-6)Glc): -0.168
- glycan array binding signal (z-score) (Glc(b1-4)Glc): -0.17
- glycan array binding signal (z-score) (Glc(b1-6)Glc): -0.188
- glycan array binding signal (z-score) (GlcA(b1-3)Gal): -0.169
- glycan array binding signal (z-score) (GlcA(b1-3)GlcNAc): -0.085
- glycan array binding signal (z-score) (GlcA(b1-6)Gal): -0.171
- glycan array binding signal (z-score) [5]: -0.14
- glycan array binding signal (z-score) [6]: -0.185
- glycan array binding signal (z-score) [7]: -0.185
- glycan array binding signal (z-score) [8]: -0.178
- glycan array binding signal (z-score) [9]: -0.178
- glycan array binding signal (z-score) [10]: -0.18
- glycan array binding signal (z-score) [11]: -0.183
- glycan array binding signal (z-score) [12]: -0.14
- glycan array binding signal (z-score) [13]: -0.159
- glycan array binding signal (z-score) [14]: -0.177
- glycan array binding signal (z-score) [15]: 6.38
- glycan array binding signal (z-score) [16]: 5.47
- glycan array binding signal (z-score) [17]: 7.84
- glycan array binding signal (z-score) [18]: 3.57
- glycan array binding signal (z-score) [19]: 3.6
- glycan array binding signal (z-score) [20]: 1.62
- glycan array binding signal (z-score) [21]: 4.99
- glycan array binding signal (z-score) [22]: 7.22
- glycan array binding signal (z-score) (GlcNAc(b1-3)Gal): -0.164
- glycan array binding signal (z-score) [23]: -0.165
- glycan array binding signal (z-score) (GlcNAc(b1-3)Gal(b1-4)Glc): -0.149
- glycan array binding signal (z-score) [24]: -0.174
- glycan array binding signal (z-score) [25]: -0.177
- glycan array binding signal (z-score) (GlcNAc(b1-3)GalNAc): -0.184
- glycan array binding signal (z-score) (GlcNAc(b1-3)Man): -0.173
- glycan array binding signal (z-score) [26]: -0.159
- glycan array binding signal (z-score) [27]: -0.171
- glycan array binding signal (z-score) [28]: -0.179
- glycan array binding signal (z-score) [29]: -0.166
- glycan array binding signal (z-score) (GlcNAc(b1-4)GlcNAc): -0.173
- glycan array binding signal (z-score) [30]: -0.188
